Data reported in PubChem BioAssay AID1461 (National Center for Advancing Translational Sciences (NCATS), 2008).
About 2,300 (1%) of roughly 220,000 compounds were called active. Inconclusive results, whose numbers are uncertain, are shown with a selection of clear calls. The call rests on the fitted dose curve; in most records, active means well fitted inhibition curve with a large enough effect; inconclusive means small, poorly fitted or top-dose-only effect, or effect the other way; inactive means no such curve, though single readings can be large or run the other way. No potency is given beside an inconclusive call; the fits are too rough.

biological target: Neuropeptide S receptor (Homo sapiens) (UniProt Q6W5P4); test: qHTS Assay for Antagonists of the Neuropeptide S Receptor: cAMP Signal Transduction; conditions: CHO-NPSR cells, cAMP TR-FRET, antagonist mode; activity change, negative = inhibition: at 38.3 µM (top of the series) unless noted; further: nearly all actives have a fitted effect of over 50% in size
Chain of UniProt Q6W5P4 (Q6W5P4 whole entry, looked up): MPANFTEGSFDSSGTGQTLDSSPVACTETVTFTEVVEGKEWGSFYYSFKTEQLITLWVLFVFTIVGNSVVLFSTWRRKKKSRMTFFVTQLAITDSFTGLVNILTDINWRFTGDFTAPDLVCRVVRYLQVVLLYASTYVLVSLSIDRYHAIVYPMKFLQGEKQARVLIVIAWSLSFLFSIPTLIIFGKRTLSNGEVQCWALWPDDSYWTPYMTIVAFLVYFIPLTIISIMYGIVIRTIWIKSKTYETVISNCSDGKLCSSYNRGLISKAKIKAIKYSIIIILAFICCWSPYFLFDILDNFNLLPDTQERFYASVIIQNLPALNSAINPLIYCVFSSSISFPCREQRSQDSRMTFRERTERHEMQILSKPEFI
On the % scale 0 is the no-effect control and ±100 the full control effect; potency means the concentration at half of the fitted maximal effect; tags describe the fitted curve by direction and shape.

Structure (SMILES)	Potency	activity change, negative = inhibition
CC(CNC(=S)Nc1cc(F)cc(F)c1)CSc1ccc(Cl)cc1 (configuration not stated)	inconclusive [inhibitor, single point]	
O=C(CCl)NC(Cc1ccccc1)c1ccccc1 (configuration not stated)		inactive: -13.7%
COc1ccc(Cc2nn3c(-c4ccccc4OC)nnc3s2)cc1	inconclusive [inhibitor, partial curve]	
C/C(=N\O)C1CCCCC1		inactive: 12.7%
Cc1nc(N2CCc3ccccc3C2)[nH]c(=O)c1Cc1ccccc1		inactive: -12.8%
Cc1ccc(C(=O)NNC(=O)Cn2nnc3ccccc32)cc1		inactive: -2.87%
CC(C)(C)c1cc(NCc2ccccn2)n2ncc(-c3ccc(Cl)cc3)c2n1	inconclusive [activator, partial curve]	
O=C1ON=C(c2ccccc2)/C1=C\c1ccco1	inconclusive [activator, partial curve]	
CC1CN(C(=O)COC(=O)c2cccs2)CC(C)O1 (configuration not stated)		inactive: -7.8% [at 46.1 µM]
COc1ccc(CN(C(=O)CN2C(=O)COc3ccccc32)C2CCCC2)c(OC)c1	inconclusive [inhibitor, partial curve]	
Cc1cc(C(=O)N(C)C)sc1-c1ccccc1		inactive: 12.1% [at 46.1 µM]
CCc1nnc(NC(=O)c2ccc(S(=O)(=O)N(CC)CC)cc2)s1		inactive: 2.69% [at 46.1 µM]
COc1ccc(Cl)cc1NC(=O)C1CCCO1 (configuration not stated)		inactive: -3.75% [at 46.1 µM]
CC(O)C1CCC2C3CC[C@H]4CC(O)CCC4(C)C3CC3(OCCO3)C12C (some centres not stated)	inconclusive [inhibitor, partial curve]	
COc1ccc(C2c3c(ncn(CCCO)c3=N)Oc3ccc4ccccc4c32)cc1 (configuration not stated)	inconclusive [inhibitor, full curve, poor fit]	
Cc1ccc(CN2C(=O)N/C(=C\c3ccc(-c4ccc(C(=O)O)cc4C)o3)C2=O)cc1	inconclusive [activator, partial curve]	
CCCCCCCCCCCCCCCCn1cc[n+](C)c1	inconclusive [inhibitor, single point]	
COc1cc(C(c2sc3nc(C)nn3c2O)N2CCC3(CC2)OCCO3)cc(OC)c1OC (configuration not stated)		inactive: 4.34% [at 46.1 µM]
Cc1c(C(=O)Nc2ccccc2)sc2nc[nH]c(=O)c12		inactive: 13.5%
COc1ccccc1NC(=O)CSc1nc2ccccc2cc1Cc1ccccc1	inconclusive [inhibitor, partial curve]	
COc1ccccc1-c1ccc(=O)n(CC(=O)Nc2ccc(C(=O)N3CCCC3)cc2)n1	inconclusive [inhibitor, single point]	
CCCCSC(=O)Nc1ccccc1	inconclusive [inhibitor, partial curve]	
